Test results from PubChem BioAssay AID1671193 (National Center for Advancing Translational Sciences (NCATS), 2021).
About 180 (0.12%) of roughly 150,000 compounds were called active. The inconclusive results got no clear call from the source; some entries with a clear call stand among them for comparison. Calls follow the shape of the dose curve; as a rule, active = well fitted cell-killing curve with a large enough effect; inconclusive = small, poorly fitted or top-dose-only effect, or effect the other way; inactive = flat fitted curve, though single readings scatter. A potency beside an inconclusive call is a rough fit, not a confirmed value.

Test: GF-AFC viability counterscreen for inhibitors of alpha-synuclein gene (SNCA) expression; also: nearly all actives have a fitted effect of over 30% in size;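 as to activity change, negative = cytotoxicity: 0% = DMSO-treated cells and -100% = medium-only wells without cells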
Details: HEK-293-SNCA-luc viability, GF-AFC fluorescence, 24 h; activity change, negative = cytotoxicity: at 57.1 µM (top of the series) unless noted
Procedure, shortened: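 HEK-293-SNCA-luc cells (1500/well) plated 24 h, then exposed 24 h to a dilution series; GF-AFC added 30 min at 37C, fluorescence 405/540 nm; normalised to medium-only and DMSO wells, Hill fit.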
Potency is read from the fitted curve at half-maximal effect; tags tell the direction and shape of the fitted curve.

SMILES | Potency | activity change, negative = cytotoxicity
COc1ccccc1NC(=O)Cn1c(=O)n(Cc2cccs2)c(=O)c2cccnc21 | inconclusive: 0.282 µM [rising, full curve, poor fit] | –
O=C(Cn1cc(SCc2ccccc2F)c2ccccc21)N1CCCCCC1 | inconclusive: 31.6 µM [cytotoxic, single point] | –
O=C(O)c1cccc(CC2CCN(C(=O)CN3CCCCC3=O)C2)c1 (configuration not stated) | – | inactive: 6.34%
Cc1ccc(C(=O)OCc2cc(=O)n3nc(-c4cccs4)sc3n2)cc1 | inconclusive: 2.82 µM [rising, full curve, poor fit] | –
Cc1c(CN2CCCC(C(=O)Nc3cccc(-c4cc5ccccc5[nH]4)c3)C2)cnn1C (configuration not stated) | inconclusive: 39.8 µM [cytotoxic, single point] | –
Cc1noc(C)c1-c1nccc2c(=O)cc(N(C)c3ccccc3)oc12 | – | inactive: 8.75% [at 87.6 µM]
CC(C)=CCCC(C)=CCCC(C)=CCSc1ccccc1C(=O)O | inconclusive: 1.36 µM [cytotoxic, full curve] | –
CN(C)c1nc(NC2CCC(NCCc3ccc(Br)cc3OC(F)(F)F)CC2)nc2ccccc12 (configuration not stated) | inconclusive: 37.7 µM [cytotoxic, single point] | –
CCN(CC)CCNC(=O)c1cc2c(=O)[nH]c3ccc(C)cc3c2s1 | inconclusive: 10 µM [rising, partial curve, poor fit] | –
CS(=O)(=O)N1CCn2ncc(C(=O)N3CCOCC3)c2C1 | inconclusive: 6.31 µM [cytotoxic, single point] | –
CCC1CN(C(=O)c2ccc3ccccc3n2)CCC(=O)N1Cc1ccccc1 (configuration not stated) | inconclusive: 39.8 µM [cytotoxic, single point] | –
COc1cccc(-c2ccc(CN3CCCC(NC(=O)c4ccc(C(F)(F)F)cc4)C3)cc2)c1 (configuration not stated) | – | inactive: -12.1%
COc1ccccc1-c1ccc(C(=O)N2CCC(NC(=O)NC(C)C)CC2)cc1 | – | inactive: -7.81% [at 12.5 µM]
O=C(NCCc1ccc(Cl)cc1)C1CCc2nnc(-c3ccc(F)cc3)n21 (configuration not stated) | – | inactive: -7.59%
CN1CCN([C@@H]2[C@H](O)[C@H](CO)O[C@@H]2CN(Cc2ccc(Cl)cc2)Cc2cccc(Cl)c2)CC1 | inconclusive: 28.2 µM [cytotoxic, single point] | –
Cn1nccc1OCc1cn2c(=O)n(C)cc(-c3ccccc3F)c2n1 | – | inactive: 3.39% [at 87.6 µM]
C=CCNC(=O)CCc1c(C)nn(-c2ccc(F)cc2)c1Oc1ccccc1F | inconclusive: 35.5 µM [cytotoxic, single point] | –
COCCCn1c(=N)c(C(=O)NC2CCCC2)cc2c(=O)n3cc(C)ccc3nc21 | inconclusive: 2 µM [rising, full curve, poor fit] | –
COc1cc(NC(=O)Cn2c(-c3ccc(F)cc3)nc(C)c(CCO)c2=O)cc(OC)c1 | inconclusive: 22.4 µM [cytotoxic, partial curve] | –
O=[S+]([O-])(NC1CCN(c2ccnc3ccnn23)C1)c1cccs1 (configuration not stated) | – | inactive: 3.75% [at 87.6 µM]
COc1ccc(Nc2nc(-c3ccccc3F)no2)cc1OC | – | inactive: -9.05%

SMILES | Potency | activity change, negative = cytotoxicity
CCn1c(=O)c(-c2ccc(-c3cncs3)cc2Cl)cc2cnc(Nc3ccc(N4CCN(C)CC4)cc3)nc21 | – | inactive: -9.08%
COc1ccccc1CN1C[C@@H](C(=O)O)C[C@H](C(=O)NCc2ccccn2)C1 | – | inactive: -2.41%
COc1cc(OC)c(OC)cc1CN1CCC(O)(CN2CCCC2)CC1 | – | inactive: -5.84%
COc1cc(C)ccc1OCC(=O)c1ccc2c(c1)N(CCCC(=O)NCC1CC1)C(=O)CO2 | – | inactive: -27.2%
C[C@@H](Oc1cc(-n2cnc3ccc(OC4CCN(C)CC4)cc32)sc1C(N)=O)c1ccccc1C(F)(F)F | inconclusive: 13.4 µM [cytotoxic, partial curve, poor fit] | –
COc1cc2c(cc1OC(C)C)[C@H](c1ccc(Cl)cc1)N(c1ccc(N(C)CC3CCC(N4CCN(C)C(=O)C4)CC3)cc1)C(=O)C2 (some centres not stated) | – | inconclusive: -54.4% [cytotoxic]
O=C(Nc1ccc(Oc2ccccc2)cc1)O[C@@H]1CO[C@H]2[C@@H]1OC[C@@H]2NC(=O)c1ccccn1 | inconclusive: 31.6 µM [cytotoxic, single point] | –
CCc1cccc(NC(=O)c2ccc3c(c2)N(CC)C2CCCCN2C3=O)c1 (configuration not stated) | inconclusive: 3.16 µM [rising, single point] | –
COc1ccc(-c2noc([C@@H]3C[C@@H](O)CN3C(C)C)n2)cc1 | – | inactive: -1.09% [at 87.6 µM]
COc1ccc(C(=O)N2CCOCC3(CN(Cc4cc(C)cc(F)c4)C3)C2)cc1OC | inconclusive: 5.01 µM [cytotoxic, full curve, poor fit] | –
CNc1oc(/C=C/c2cc(OC)c(OC)c(OC)c2)nc1C#N | inconclusive: 39.8 µM [rising, single point] | –
Cc1cccc(OCCCCn2c(C3CC(=O)N(c4ccc(C)cc4C)C3)nc3ccccc32)c1 (configuration not stated) | inconclusive: 31.6 µM [cytotoxic, single point] | –
COc1ccc(C(=O)N2CCc3ccc(C(=O)NCc4cccc(F)c4)cc32)cc1 | inconclusive: 44.7 µM [cytotoxic, partial curve, poor fit] | –
COc1nccnc1NC1CCN(C(=O)c2cccc(C)c2)CC1 | – | inactive: 0.741%
Cc1ccc(O)c(CN2CC[C@@H](c3ccc4ccccc4c3)[C@H](O)C2)n1 | – | inactive: 5.37%
COc1cccc2nc(-c3cccs3)nc(NN3C(=O)C=C(C)C3=O)c12 | inconclusive: 12.1 µM [cytotoxic, full curve, poor fit] | –
O=C(c1ccc(Cl)cc1)N1CC2(CCN(Cc3c[nH]c4ccccc34)CC2)Cc2ccccc21 | inconclusive: 25.1 µM [cytotoxic, partial curve, poor fit] | –
COc1cccc(CNC(=O)c2ccc(CS(=O)Cc3ccc(Cl)cc3)o2)c1 (configuration not stated) | inconclusive: 17.8 µM [rising, partial curve, poor fit] | –
O=C(c1ccc(Cl)cc1)N1CC2(CCCN2C2COC2)Cc2ccccc21 (configuration not stated) | – | inactive: -11.9%
N#Cc1ccc(CN2CCn3c(nnc3C3CCCNC3)C2)cc1 (configuration not stated) | – | inactive: -23.6%
Cc1cnc(Nc2ccc(N3CCN(C)CC3)cc2)nc1Nc1cccc(S(=O)(=O)NC(C)(C)C)c1 | inconclusive: 4.29 µM [cytotoxic, full curve, poor fit] | –
